Measurements taken from the supplement of paper PMC8728848.
Some of the results follow.

What was measured:
Experiment in all cases: glycan array binding signal (z-score within array); higher = stronger binding
Conditions in all cases: glycan notation: IUPAC condensed, linker removed
Gal(b1-3)GlcNAc = molecular target: Gal(b1-3)GlcNAc
Procedure, shortened: (§1)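 The binding signal is a Z-score computed within each array. Data were drawn from 3228 arrays in the Consortium for Functional Glycomics database, restricted to those with a known protein sequence. Scores were averaged over arrays of the same protein sequence at different concentrations or buffers, and over linkers, and negative values can be taken as non-binding.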

[1] = molecular target: Gal(b1-3)GlcNAc(a1-3)Gal(b1-4)GlcNAc
Procedure, shortened: as §1

[2] = molecular target: Gal(b1-3)GlcNAc(a1-6)Gal(b1-4)GlcNAc
Procedure, shortened: as §1

[3] = molecular target: Gal(b1-3)GlcNAc(b1-2)Man(a1-3)[Gal(b1-3)GlcNAc(b1-2)Man(a1-6)]Man(b1-4)GlcNAc(b1-4)GlcNAc
Procedure, shortened: as §1

[4] = molecular target: Gal(b1-3)GlcNAc(b1-2)Man(a1-3)[Gal(b1-3)GlcNAc(b1-2)Man(a1-6)]Man(b1-4)GlcNAc(b1-4)[Fuc(a1-6)]GlcNAc
Procedure, shortened: as §1

[5] = molecular target: Gal(b1-3)GlcNAc(b1-2)Man(a1-3)[GlcNAc(b1-4)][Gal(b1-3)GlcNAc(b1-2)Man(a1-6)]Man(b1-4)GlcNAc(b1-4)GlcNAc
Procedure, shortened: as §1

[6] = molecular target: Gal(b1-3)GlcNAc(b1-2)[Gal(b1-3)GlcNAc(b1-6)]Man(a1-6)[Gal(b1-3)GlcNAc(b1-2)Man(a1-3)]Man(b1-4)GlcNAc(b1-4)GlcNAc
Procedure, shortened: as §1

[7] = molecular target: Gal(b1-3)GlcNAc(b1-3)Gal(b1-3)GlcNAc
Procedure, shortened: as §1

[8] = molecular target: Gal(b1-3)GlcNAc(b1-3)Gal(b1-4)Glc
Procedure, shortened: as §1

[9] = molecular target: Gal(b1-3)GlcNAc(b1-3)Gal(b1-4)GlcNAc
Procedure, shortened: as §1

[10] = molecular target: Gal(b1-3)GlcNAc(b1-3)Gal(b1-4)GlcNAc(b1-6)[Gal(b1-3)GlcNAc(b1-3)]Gal(b1-4)Glc
Procedure, shortened: as §1

[11] = molecular target: Gal(b1-3)GlcNAc(b1-3)Gal(b1-4)[Fuc(a1-3)]GlcNAc(b1-6)[Gal(b1-3)GlcNAc(b1-3)]Gal(b1-4)Glc
Procedure, shortened: as §1

[12] = molecular target: Gal(b1-3)GlcNAc(b1-3)GalNAc
Procedure, shortened: as §1

[13] = molecular target: Gal(b1-3)GlcNAc(b1-6)Gal(b1-4)GlcNAc
Procedure, shortened: as §1

[14] = molecular target: Gal(b1-3)GlcNAc(b1-6)GalNAc
Procedure, shortened: as §1

Gal(b1-3)GlcNAc6S = molecular target: Gal(b1-3)GlcNAc6S
Procedure, shortened: as §1

[15] = molecular target: Gal(b1-3)[Fuc(a1-4)]GlcNAc
Procedure, shortened: as §1

[16] = molecular target: Gal(b1-3)[Fuc(a1-4)]GlcNAc(b1-2)Man(a1-3)[Gal(b1-3)[Fuc(a1-4)]GlcNAc(b1-2)Man(a1-6)]Man(b1-4)GlcNAc(b1-4)GlcNAc
Procedure, shortened: as §1

[17] = molecular target: Gal(b1-3)[Fuc(a1-4)]GlcNAc(b1-2)Man(a1-3)[Gal(b1-3)[Fuc(a1-4)]GlcNAc(b1-2)Man(a1-6)]Man(b1-4)GlcNAc(b1-4)[Fuc(a1-6)]GlcNAc
Procedure, shortened: as §1

[18] = molecular target: Gal(b1-3)[Fuc(a1-4)]GlcNAc(b1-3)Gal(b1-3)[Fuc(a1-4)]GlcNAc
Procedure, shortened: as §1

[19] = molecular target: Gal(b1-3)[Fuc(a1-4)]GlcNAc(b1-3)Gal(b1-4)GlcNAc
Procedure, shortened: as §1

[20] = molecular target: Gal(b1-3)[Fuc(a1-4)]GlcNAc(b1-3)Gal(b1-4)[Fuc(a1-3)]GlcNAc
Procedure, shortened: as §1

[21] = molecular target: Gal(b1-3)[Fuc(a1-4)]GlcNAc(b1-6)GalNAc
Procedure, shortened: as §1

[22] = molecular target: Gal(b1-3)[GlcNAc(b1-6)]GalNAc
Procedure, shortened: as §1

[23] = molecular target: Gal(b1-3)[Neu5Ac(a2-6)]GalNAc
Procedure, shortened: as §1

[24] = molecular target: Gal(b1-3)[Neu5Ac(a2-6)]GlcNAc(b1-6)Gal(b1-4)Glc
Procedure, shortened: as §1

[25] = molecular target: Gal(b1-3)[Neu5Ac(b2-6)]GalNAc
Procedure, shortened: as §1

Gal(b1-4)Gal = molecular target: Gal(b1-4)Gal
Procedure, shortened: as §1

[26] = molecular target: Gal(b1-4)GalNAc(a1-3)[Fuc(a1-2)]Gal(b1-4)GlcNAc
Procedure, shortened: as §1

[27] = molecular target: Gal(b1-4)GalNAc(b1-3)[Fuc(a1-2)]Gal(b1-4)GlcNAc
Procedure, shortened: as §1

Gal(b1-4)Glc = molecular target: Gal(b1-4)Glc
Procedure, shortened: as §1

Gal(b1-4)Glc6S = molecular target: Gal(b1-4)Glc6S
Procedure, shortened: as §1

Gal(b1-4)GlcNAc = molecular target: Gal(b1-4)GlcNAc
Procedure, shortened: as §1

[28] = molecular target: Gal(b1-4)GlcNAc(a1-6)Gal(b1-4)GlcNAc
Procedure, shortened: as §1

Gal(b1-4)GlcNAc(b1-2)Man = molecular target: Gal(b1-4)GlcNAc(b1-2)Man
Procedure, shortened: as §1

[29] = molecular target: Gal(b1-4)GlcNAc(b1-2)Man(a1-3)Man(b1-4)GlcNAc(b1-4)GlcNAc
Procedure, shortened: as §1

[30] = molecular target: Gal(b1-4)GlcNAc(b1-2)Man(a1-3)[Gal(b1-4)GlcNAc(b1-2)Man(a1-6)]Man(b1-4)GlcNAc(b1-4)GlcNAc
Procedure, shortened: as §1

[31] = molecular target: Gal(b1-4)GlcNAc(b1-2)Man(a1-3)[Gal(b1-4)GlcNAc(b1-2)Man(a1-6)]Man(b1-4)GlcNAc(b1-4)[Fuc(a1-6)]GlcNAc
Procedure, shortened: as §1

[32] = molecular target: Gal(b1-4)GlcNAc(b1-2)Man(a1-3)[Gal(b1-4)GlcNAc(b1-2)][GlcNAc(b1-4)]Man(b1-4)GlcNAc(b1-4)GlcNAc
Procedure, shortened: as §1

[33] = molecular target: Gal(b1-4)GlcNAc(b1-2)Man(a1-3)[GlcNAc(b1-2)Man(a1-6)]Man(b1-4)GlcNAc(b1-4)GlcNAc
Procedure, shortened: as §1

[34] = molecular target: Gal(b1-4)GlcNAc(b1-2)Man(a1-3)[Man(a1-6)]Man(b1-4)GlcNAc(b1-4)GlcNAc
Procedure, shortened: as §1

[35] = molecular target: Gal(b1-4)GlcNAc(b1-2)Man(a1-6)Man(b1-4)GlcNAc(b1-4)GlcNAc
Procedure, shortened: as §1

[36] = molecular target: Gal(b1-4)GlcNAc(b1-2)Man(a1-6)[GlcNAc(b1-2)Man(a1-3)]Man(b1-4)GlcNAc(b1-4)GlcNAc
Procedure, shortened: as §1

[37] = molecular target: Gal(b1-4)GlcNAc(b1-2)Man(a1-6)[Man(a1-3)]Man(b1-4)GlcNAc(b1-4)GlcNAc
Procedure, shortened: as §1

[38] = molecular target: Gal(b1-4)GlcNAc(b1-2)[Gal(b1-4)GlcNAc(b1-4)]Man(a1-3)[Gal(b1-4)GlcNAc(b1-2)Man(a1-6)]Man(b1-4)GlcNAc(b1-4)GlcNAc
Procedure, shortened: as §1

B1: SpnanA (Streptococcus pneumoniae), P62575 (protein)
chain: MVIEKEDVETNASNGQRVDLSSELDKLKKLENATVHMEFKPDAKAPAFYNLFSVSSATKKDEYFTMAVYNNTATLEGRGSDGKQFYNNYNDAPLKVKPGQWNSVTFTVEKPTAELPKGRVRLYVNGVLSRTSLRSGNFIKDMPDVTHVQIGATKRANNTVWGSNLQIRNLTVYNRALTPEEVQKRS
glycan array binding signal (z-score) (Gal(b1-3)GlcNAc): -0.262 | glycan array binding signal (z-score) [1]: -0.311 | glycan array binding signal (z-score) [2]: -0.246 | glycan array binding signal (z-score) [3]: 0.3 | glycan array binding signal (z-score) [4]: -0.204 | glycan array binding signal (z-score) [5]: -0.374 | glycan array binding signal (z-score) [6]: -0.168 | glycan array binding signal (z-score) [7]: -0.24 | glycan array binding signal (z-score) [8]: -0.195 | glycan array binding signal (z-score) [9]: -0.288 | glycan array binding signal (z-score) [10]: -0.283 | glycan array binding signal (z-score) [11]: -0.312 | glycan array binding signal (z-score) [12]: -0.237 | glycan array binding signal (z-score) [13]: -0.328 | glycan array binding signal (z-score) [14]: -0.323 | glycan array binding signal (z-score) (Gal(b1-3)GlcNAc6S): -0.247 | glycan array binding signal (z-score) [15]: -0.229 | glycan array binding signal (z-score) [16]: 0.266 | glycan array binding signal (z-score) [17]: -0.15 | glycan array binding signal (z-score) [18]: -0.294 | glycan array binding signal (z-score) [19]: -0.337 | glycan array binding signal (z-score) [20]: -0.218 | glycan array binding signal (z-score) [21]: -0.169 | glycan array binding signal (z-score) [22]: -0.24 | glycan array binding signal (z-score) [23]: 0.084 | glycan array binding signal (z-score) [24]: 0.077 | glycan array binding signal (z-score) [25]: -0.233 | glycan array binding signal (z-score) (Gal(b1-4)Gal): -0.225 | glycan array binding signal (z-score) [26]: -0.262 | glycan array binding signal (z-score) [27]: -0.241 | glycan array binding signal (z-score) (Gal(b1-4)Glc): -0.297 | glycan array binding signal (z-score) (Gal(b1-4)Glc6S): -0.205 | glycan array binding signal (z-score) (Gal(b1-4)GlcNAc): -0.336 | glycan array binding signal (z-score) [28]: -0.182 | glycan array binding signal (z-score) (Gal(b1-4)GlcNAc(b1-2)Man): -0.324 | glycan array binding signal (z-score) [29]: -0.157 | glycan array binding signal (z-score) [30]: -0.206 | glycan array binding signal (z-score) [31]: -0.044 | glycan array binding signal (z-score) [32]: -0.288 | glycan array binding signal (z-score) [33]: -0.255 | glycan array binding signal (z-score) [34]: 0.687 | glycan array binding signal (z-score) [35]: -0.227 | glycan array binding signal (z-score) [36]: -0.241 | glycan array binding signal (z-score) [37]: -0.288 | glycan array binding signal (z-score) [38]: -0.266
